According to PubChem BioAssay AID463173 (ICCB-Longwood Screening Facility, Harvard Medical School, 2010):
Screen size: about 52,000 compounds; about 1,700 (3.3%) were called active. No stated cut-off is given here; in the data, active means survival mostly below about 52% (no sharp cut-off); inactive means mostly above about 56%. The list shows a part of the results.

Test system: Wild type
Experiment: growth inhibition of S. aureus wild type versus tarO mutant, primary screen, teichoic acid synthesis inhibitors, RN4220, OD600 (AID 463173)
Details: S. aureus RN4220 wild type/DeltatarO growth, OD600, 18 h, active compounds read low, screened at 18.75 µg/mL (by protocol)

| SMILES | survival |
| --- | --- |
| CCOC(=O)N1CCN(Cc2nc3cc(NC(=O)c4ccccc4[N+](=O)[O-])ccc3n2C(C)C)CC1 | inactive: 112% |
| Cc1ccc(-n2c3nc(=O)[nH]c(=O)c-3cc3c(C)nn(-c4ccccc4)c32)cc1Cl | inactive: 88% |
| O=C(NC1CCCCC1)c1ccc(Cn2c(SCc3ccc(F)cc3)nc3cccnc32)cc1 | active: 0% |
| CCOc1no[n+]([O-])c1-c1ccccc1 | inactive: 87% |
| Cc1ccc2c(c1)-c1onc(C(=O)N3CCN(c4ccc(Cl)cc4)CC3)c1CO2 | inactive: 88% |
| CCCNC(=O)C1CCC(Cn2c(=O)c3sccc3n(Cc3ccccc3F)c2=O)CC1 (centres undefined) | inactive: 77% |
| COCCCn1c(=N)c(C(=O)NCc2ccco2)cc2c(=O)n3ccccc3nc21 | inactive: 128% |
| Cc1cccc(C)c1NC(=O)NCCc1c[nH]c2ccccc12 | inactive: 86% |
| COc1ccccc1CNC(=O)CCn1nc(C)c2c(C)n(-c3ccccc3)nc2c1=O | inactive: 73% |
| O=C(c1ccccc1NS(=O)(=O)c1cccc2nsnc12)N1CCOCC1 | inactive: 111% |
| CCCCN(CC)C(=O)CSc1nc2n[nH]c(C)c2c(=N)n1-c1cccc(OC)c1 | inactive: 120% |
| Cc1oc(-c2ccc(Cl)cc2)nc1CS(=O)CC(=O)N1CCN(c2cccc(C(F)(F)F)c2)CC1 (centres undefined) | inactive: 80% |
| COc1cccc(N2CCN(c3ncnc4c3nc3n4CCCCC3)CC2)c1 | active: -3% |
| O=S(=O)(c1ccccc1)c1nnn2c1nc(NCc1ccc(F)cc1)c1sccc12 | inactive: 96% |
| Brc1ccc(-c2nc3ccccn3c2Nc2ccc3c(c2)OCCO3)o1 | inactive: 63% |
| Cc1cccc(N(C)C(=O)CCS(=O)(=O)c2ccc3c(c2)oc(=O)n3C)c1 | inactive: 71% |
| CCOC(=O)c1c(S(=O)(=O)N2CCC(C(=O)NCc3ccc(F)cc3)CC2)c(C)n(C)c1C | inactive: 85% |
| CN(C)S(=O)(=O)c1ccc2c(c1)N(CC(=O)Nc1ccc(OC(F)(F)F)cc1)C(=O)CS2 | inactive: 71% |
| C=Cc1ccc(Cn2c(C(=O)O)c(CNC3CCCC3)c3ccc(C)cc32)cc1 | inactive: 71% |
| COc1ccc(OCC(=O)NC2CC(=O)N(c3cccc(OC)c3)C2)cc1 (centres undefined) | active: -3% |
| O=C(/C=C/c1ccco1)Nc1cccc(-c2nc3ccccc3o2)c1 | inactive: 107% |
| CCCN(CCC)CC(O)Cn1cc(/C=C/C(=O)c2ccc(C)cc2)c2ccccc21 (centres undefined) | active: -1% |
| CC(C(=O)NCc1ccc(Cl)cc1)n1ccc2cc(S(=O)(=O)N3CCCCCC3)ccc21 (centres undefined) | inactive: 124% |

| SMILES | survival |
| --- | --- |
| COc1ccc(NC(=O)c2cc(S(=O)(=O)N3CCCCCC3)cn2C)c(OC)c1 | inactive: 77% |
| O=C1c2cccc3c(N4CCCC4)ccc(c23)C(=O)N1c1ccccc1 | inactive: 108% |
| COc1ccc(OC)c(CNC(=O)c2c3c(nc4ccccc24)C(=O)N(C2CCCCC2)C3)c1 | inactive: 74% |
| O=C(NCc1ccccc1Cl)C1CCCN(S(=O)(=O)c2cccc3nsnc23)C1 (centres undefined) | inactive: 83% |
| CCOC(=O)c1c(C)[nH]c(C)c1S(=O)(=O)N1CCC(C(=O)N2CCN(c3ccccc3)CC2)CC1 | inactive: 72% |
| CCC(=O)N1CCc2cc(Br)cc(S(=O)(=O)N3CCN(c4ccc(C)cc4)C(C)C3)c21 (centres undefined) | inactive: 139% |
| Cc1ccccc1-c1noc(-c2cccnc2NCc2ccco2)n1 | inactive: 79% |
| CC(=O)N1CCc2cc(C(=O)C[n+]3ccccc3)ccc21 | inactive: 93% |
| Clc1ccc2[nH]c3nc4ccccc4nc3c2c1 | inactive: 104% |
| CCOC(=O)c1c(C)[nH]c(C)c1S(=O)(=O)N1CCC(C(=O)N2CCN(c3cccc(Cl)c3)CC2)CC1 | inactive: 67% |
| CCOC(=O)c1cccc(NC(=O)NCc2cccn2Cc2ccccc2)c1 | inactive: 123% |
| Cc1ccc2occ(CC(=O)N(Cc3ccccc3Cl)C3CCS(=O)(=O)C3)c2c1 (centres undefined) | inactive: 83% |
| CC1CCC(Nc2nc3c(-c4ccc(Cl)cc4)nnn3c3ccccc23)CC1 (centres undefined) | inactive: 25% |
| Cc1ccc(Cn2cc(CCC(=O)NC3CCC(C)CC3)c3ccccc32)cc1 (centres undefined) | inactive: 98% |
| CC(=O)c1ccc(NC(=O)CN2C(=O)CCc3ccccc32)cc1 | inactive: 84% |
| CCn1c(SC)nnc1C1CCCN1CC(=O)N1CCN(Cc2ccc3c(c2)OCO3)CC1 (centres undefined) | inactive: 101% |
| O=C(CSc1oc(-c2ccccc2)nc1S(=O)(=O)c1ccc(Cl)cc1)Nc1ccc(F)cc1 | inactive: 176% |
| CC(=O)Nc1ccc(/C=C/c2nc(-c3ccccc3O)n(-c3ccccc3)n2)cc1 | inactive: 86% |
| O=C(NCc1cccnc1)c1cnn2c(C(F)F)cc(-c3ccccc3)nc12 | inactive: 107% |
| COc1ccccc1CNS(=O)(=O)c1ccc2c(c1)NC(=O)C(C)C(=O)N2 (centres undefined) | inactive: 89% |
| Cn1c(=O)oc2cc(S(=O)(=O)N3CCCC(C(=O)NCCc4ccc(Cl)cc4)C3)ccc21 (centres undefined) | inactive: 90% |
| Cc1cccc(-c2nc(C)c(CCNC(=O)C(=O)Nc3cccc(Cl)c3C)s2)c1 | inactive: 68% |
| O=C(Cn1cc(SCc2ccc(C(F)(F)F)cc2)c2ccccc21)N1CCOCC1 | inactive: 71% |

| SMILES | survival |
| --- | --- |
| Cc1ccc(-c2nc(-c3cc4c([nH]c3=O)CC(C)(C)CC4=O)sc2C)cc1 | inactive: 62% |
| CCCCSc1nc(-c2ccc(OC)cc2)ccc1C#N | inactive: 28% |
| COC(=O)c1ccccc1NC(=O)Cn1c(CCC(=O)O)ccc1-c1cccs1 | inactive: 72% |
| Cc1ccc2c(c1)c1c3n2CCN(C(=O)Cn2c(-c4ccccc4)noc2=O)C3CCC1 (centres undefined) | inactive: 103% |
| O=C(NCc1ccccc1)c1cc2sccc2n1Cc1ccc(Cl)cc1 | inactive: 95% |
| COC(=O)CSc1ncc2c(n1)-c1ccccc1N(Cc1ccccc1C)S2(=O)=O | inactive: 124% |
| CCOc1ccc(N(C)C(=O)CS(=O)(=O)c2cccc3nsnc23)cc1 | inactive: 102% |
| COc1ccccc1N1CCN(C(=O)C(CCSC)NS(=O)(=O)c2ccc3c(c2)oc(=O)n3C)CC1 (centres undefined) | inactive: 79% |
| CC(C)Oc1ccc(CNC(=O)CCCN2C(=O)CCn3nc(-c4cccn4C)cc32)cc1 | inactive: 78% |
| COc1ccc2nc3oc(C(=O)N4CCN(c5cc(C)ccc5C)CC4)cc3cc2c1 | inactive: 123% |
| CCC(=O)N1CCc2cc(S(=O)(=O)CCC(=O)Nc3ccc(OC(F)(F)F)cc3)ccc21 | inactive: 78% |
| COc1ccc(CC(=O)Nc2sc3c(c2C(=O)Nc2cccc(Cl)c2)CCCCC3)cc1 | inactive: 77% |
| Cc1nn(-c2ccccc2)c2c1N(CCCC(=O)NCc1ccc(N(C)C)cc1)C(=O)CS2 | inactive: 82% |
| O=C(c1ccco1)n1nc(-c2ccccc2)nc1NCc1ccc(Cl)cc1 | inactive: 85% |
| CCC(=O)N1c2ccccc2CC1C(=O)N1CCN(c2cccc(Cl)c2)CC1 (centres undefined) | inactive: 68% |
| CCN(CC)N=Nc1ccc(S(=O)(=O)Nc2nc(C)cc(C)n2)cc1 | inactive: 112% |
| CCc1ccc(NCc2cc3ccc(OC)cc3n(CC(=O)Nc3ccc(F)cc3F)c2=O)cc1 | inactive: 71% |
| Cc1nn2c(=O)cc(COC(=O)c3ccco3)nc2s1 | inactive: 72% |
| COc1cccc(CNCCSc2nnnn2C)c1OCc1ccccc1Cl | inactive: 86% |
| O=C(Nc1ccc(F)cc1)N1CCN(c2ccccc2F)CC1 | inactive: 151% |
| CCc1cc2ccccc2nc1Cl | inactive: 101% |
| COc1cccc(CNS(=O)(=O)c2ccc3c(c2)CCN3C(=O)C2CCC2)c1 | inactive: 68% |
| CCOC(=O)c1ccc(-n2c(CCC(=O)O)ccc2-c2ccc(Br)cc2)cc1 | inactive: 65% |

| SMILES | survival |
| --- | --- |
| COc1ccc(Cn2c(SCC(=O)NCc3ccc(Cl)cc3)nc3ccsc3c2=O)cc1 | inactive: 77% |
| Cc1cc(=O)[nH]c2nnc(SCc3ccc(F)cc3)n12 | inactive: 68% |
| COc1ccc(N2C(=O)CS(=O)(=O)C23C(=O)N(Cc2cccc(F)c2)c2ccccc23)cc1OC (centres undefined) | inactive: 72% |
| Cc1ccc(C)c(S(=O)(=O)c2nnn3c2nc(Nc2ccc(C)c(C)c2)c2sccc23)c1 | inactive: 93% |
| O=C(OCC1CCNCC1)c1ccc2c(c1)OCO2 | inactive: 117% |
| O=C(NCc1cccs1)c1ccc(Cn2c(SCc3ccccc3)nc3cccnc32)cc1 | inactive: 73% |
| O=C(Nc1c(C(=O)N2CCN(c3ccccc3)CC2)oc2ccccc12)c1ccc(Br)o1 | inactive: 81% |
| CC1CN(CN2C(=O)CCC2=O)CC(C)O1 (centres undefined) | inactive: 116% |
| Cc1cc(Cl)ccc1OCC(=O)Nc1c(Cl)ccc2nsnc12 | inactive: 96% |
| Cc1ccc(NC(=O)CNC2CCCCC2)cc1Cl | inactive: 100% |
| COc1ccccc1-c1nc(SCC(=O)NCc2ccc(C)cc2)c2c(=O)n(C)c(=O)n(C)c2n1 | inactive: 68% |
| Cc1ccc(-c2ccc(=O)n(CC(=O)Nc3ccc(C)cc3Cl)n2)cc1 | inactive: 80% |
| O=C(CSc1nnc(CNc2ccc(F)cc2)o1)N1c2ccccc2Sc2ccccc21 | inactive: 105% |
| S=c1[nH]nc(-c2ccncc2)n1Cc1ccccc1 | inactive: 98% |
| O=C(COc1ccccc1F)Nc1ccc2oc(-c3cccc(Cl)c3)nc2c1 | inactive: 113% |
| Cc1cccc(CN2C(=O)N(c3ccc(C(C)C)cc3)S(=O)(=O)c3ccccc32)c1 | inactive: 92% |
| COc1cccc(/C=C/c2nc(C#N)c(NCCc3ccccc3)o2)c1 | inactive: 87% |
| COc1ccc(C2C=C(c3ccccc3)Nc3nc(NC(=O)c4cccc([N+](=O)[O-])c4)nn32)cc1 (centres undefined) | inactive: 79% |
| COc1ccc(C(=O)Nc2ccc3oc(-c4cccnc4)nc3c2)cc1 | inactive: 75% |
| Clc1cccc(N2CCN(c3nc4ccccc4n4nnnc34)CC2)c1 | inactive: 77% |
